Test [1] addresses SIRT1 (endogenous, human umbilical vein endothelial cells) (human (endogenous in HUVEC)) (UniProt Q96EB6). Kind of test: co-IP; HUVEC (Supplementary Figure 2A and 2B); nuclear and cytosolic compartments.
Test [2] has as its target full-length SIRT1 (overexpressed, compared with the truncated form) (human) (UniProt Q96EB6). In words: co-IP; full-length SIRT1 against truncated SIRT1 lacking the amino-terminal 105 residues; Supplementary Figure 5C; cells and antibodies not told (the abstract names co-immunoprecipitation).
Test [3] concerns the target truncated FLAG-tagged human SIRT1 lacking 105 amino acids at the amino-terminus (∆SIRT1-FLAG) (human) (UniProt Q96EB6). The description is as above.
Test [4] has as its target SIRT1 (endogenous, HEK293 cells) (human (endogenous in HEK293)) (UniProt Q96EB6). Kind of test: co-IP; lysates of cells transfected with HERC2 sub-domains; anti-SIRT1 antibodies; sub-domains detected with an anti-FLAG antibody.
Test [5] has as its target T1, LKB1 (endogenous, HEK293 cells) (human (endogenous in HEK293)) (UniProt Q15831).
T1 sequence: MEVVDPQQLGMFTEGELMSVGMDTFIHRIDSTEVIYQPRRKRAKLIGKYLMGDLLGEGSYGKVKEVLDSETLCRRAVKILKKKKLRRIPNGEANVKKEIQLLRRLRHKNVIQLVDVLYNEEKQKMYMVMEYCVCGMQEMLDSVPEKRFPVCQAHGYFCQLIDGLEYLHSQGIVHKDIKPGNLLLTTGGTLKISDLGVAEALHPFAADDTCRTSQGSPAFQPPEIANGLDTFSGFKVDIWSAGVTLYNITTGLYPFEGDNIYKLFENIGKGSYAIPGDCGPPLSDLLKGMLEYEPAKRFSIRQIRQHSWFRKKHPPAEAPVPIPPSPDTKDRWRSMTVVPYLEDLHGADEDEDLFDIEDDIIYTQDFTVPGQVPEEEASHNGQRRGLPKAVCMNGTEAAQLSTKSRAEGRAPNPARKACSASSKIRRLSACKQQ
In words: co-IP; cells overexpressing HERC2-DOC or HERC2-RCC2 (control RNAi) or HERC2-HECT (FLAG-tagged or non-tagged); anti-LKB1 antibodies; detection with anti-FLAG or anti-HERC2 antibodies.

By UniProt entry, the sequences of proteins in these tests, tags left out. Where a name states a change or a piece, a line headed by the entry shows the natural chain unless it says otherwise. Chains listed by the source or under a name are the forms on record and can include a tag or linker. Residues count along the entry.
UniProt Q96EB6: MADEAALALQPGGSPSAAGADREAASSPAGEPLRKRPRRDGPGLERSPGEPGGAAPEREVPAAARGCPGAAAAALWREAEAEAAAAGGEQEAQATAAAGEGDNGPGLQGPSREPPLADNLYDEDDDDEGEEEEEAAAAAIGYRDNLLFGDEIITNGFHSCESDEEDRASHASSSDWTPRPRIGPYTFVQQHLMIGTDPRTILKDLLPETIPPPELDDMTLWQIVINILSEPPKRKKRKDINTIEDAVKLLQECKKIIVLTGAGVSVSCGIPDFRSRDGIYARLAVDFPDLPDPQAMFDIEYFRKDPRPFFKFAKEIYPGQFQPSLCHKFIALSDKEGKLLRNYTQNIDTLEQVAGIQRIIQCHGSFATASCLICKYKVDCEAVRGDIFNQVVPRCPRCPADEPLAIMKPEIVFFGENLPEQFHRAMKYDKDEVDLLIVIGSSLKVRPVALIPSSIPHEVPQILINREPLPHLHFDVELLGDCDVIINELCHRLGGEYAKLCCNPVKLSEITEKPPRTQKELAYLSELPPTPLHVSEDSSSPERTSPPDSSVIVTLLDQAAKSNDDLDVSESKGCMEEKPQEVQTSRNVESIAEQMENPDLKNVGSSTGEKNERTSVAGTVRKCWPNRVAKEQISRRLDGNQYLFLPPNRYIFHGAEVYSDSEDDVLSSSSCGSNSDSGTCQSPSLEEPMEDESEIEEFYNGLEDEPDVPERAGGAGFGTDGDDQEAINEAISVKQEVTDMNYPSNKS
truncated FLAG-tagged human SIRT1 lacking 105 amino acids at the amino-terminus (∆SIRT1-FLAG): residues 106-747 of Q96EB6
UniProt O95714: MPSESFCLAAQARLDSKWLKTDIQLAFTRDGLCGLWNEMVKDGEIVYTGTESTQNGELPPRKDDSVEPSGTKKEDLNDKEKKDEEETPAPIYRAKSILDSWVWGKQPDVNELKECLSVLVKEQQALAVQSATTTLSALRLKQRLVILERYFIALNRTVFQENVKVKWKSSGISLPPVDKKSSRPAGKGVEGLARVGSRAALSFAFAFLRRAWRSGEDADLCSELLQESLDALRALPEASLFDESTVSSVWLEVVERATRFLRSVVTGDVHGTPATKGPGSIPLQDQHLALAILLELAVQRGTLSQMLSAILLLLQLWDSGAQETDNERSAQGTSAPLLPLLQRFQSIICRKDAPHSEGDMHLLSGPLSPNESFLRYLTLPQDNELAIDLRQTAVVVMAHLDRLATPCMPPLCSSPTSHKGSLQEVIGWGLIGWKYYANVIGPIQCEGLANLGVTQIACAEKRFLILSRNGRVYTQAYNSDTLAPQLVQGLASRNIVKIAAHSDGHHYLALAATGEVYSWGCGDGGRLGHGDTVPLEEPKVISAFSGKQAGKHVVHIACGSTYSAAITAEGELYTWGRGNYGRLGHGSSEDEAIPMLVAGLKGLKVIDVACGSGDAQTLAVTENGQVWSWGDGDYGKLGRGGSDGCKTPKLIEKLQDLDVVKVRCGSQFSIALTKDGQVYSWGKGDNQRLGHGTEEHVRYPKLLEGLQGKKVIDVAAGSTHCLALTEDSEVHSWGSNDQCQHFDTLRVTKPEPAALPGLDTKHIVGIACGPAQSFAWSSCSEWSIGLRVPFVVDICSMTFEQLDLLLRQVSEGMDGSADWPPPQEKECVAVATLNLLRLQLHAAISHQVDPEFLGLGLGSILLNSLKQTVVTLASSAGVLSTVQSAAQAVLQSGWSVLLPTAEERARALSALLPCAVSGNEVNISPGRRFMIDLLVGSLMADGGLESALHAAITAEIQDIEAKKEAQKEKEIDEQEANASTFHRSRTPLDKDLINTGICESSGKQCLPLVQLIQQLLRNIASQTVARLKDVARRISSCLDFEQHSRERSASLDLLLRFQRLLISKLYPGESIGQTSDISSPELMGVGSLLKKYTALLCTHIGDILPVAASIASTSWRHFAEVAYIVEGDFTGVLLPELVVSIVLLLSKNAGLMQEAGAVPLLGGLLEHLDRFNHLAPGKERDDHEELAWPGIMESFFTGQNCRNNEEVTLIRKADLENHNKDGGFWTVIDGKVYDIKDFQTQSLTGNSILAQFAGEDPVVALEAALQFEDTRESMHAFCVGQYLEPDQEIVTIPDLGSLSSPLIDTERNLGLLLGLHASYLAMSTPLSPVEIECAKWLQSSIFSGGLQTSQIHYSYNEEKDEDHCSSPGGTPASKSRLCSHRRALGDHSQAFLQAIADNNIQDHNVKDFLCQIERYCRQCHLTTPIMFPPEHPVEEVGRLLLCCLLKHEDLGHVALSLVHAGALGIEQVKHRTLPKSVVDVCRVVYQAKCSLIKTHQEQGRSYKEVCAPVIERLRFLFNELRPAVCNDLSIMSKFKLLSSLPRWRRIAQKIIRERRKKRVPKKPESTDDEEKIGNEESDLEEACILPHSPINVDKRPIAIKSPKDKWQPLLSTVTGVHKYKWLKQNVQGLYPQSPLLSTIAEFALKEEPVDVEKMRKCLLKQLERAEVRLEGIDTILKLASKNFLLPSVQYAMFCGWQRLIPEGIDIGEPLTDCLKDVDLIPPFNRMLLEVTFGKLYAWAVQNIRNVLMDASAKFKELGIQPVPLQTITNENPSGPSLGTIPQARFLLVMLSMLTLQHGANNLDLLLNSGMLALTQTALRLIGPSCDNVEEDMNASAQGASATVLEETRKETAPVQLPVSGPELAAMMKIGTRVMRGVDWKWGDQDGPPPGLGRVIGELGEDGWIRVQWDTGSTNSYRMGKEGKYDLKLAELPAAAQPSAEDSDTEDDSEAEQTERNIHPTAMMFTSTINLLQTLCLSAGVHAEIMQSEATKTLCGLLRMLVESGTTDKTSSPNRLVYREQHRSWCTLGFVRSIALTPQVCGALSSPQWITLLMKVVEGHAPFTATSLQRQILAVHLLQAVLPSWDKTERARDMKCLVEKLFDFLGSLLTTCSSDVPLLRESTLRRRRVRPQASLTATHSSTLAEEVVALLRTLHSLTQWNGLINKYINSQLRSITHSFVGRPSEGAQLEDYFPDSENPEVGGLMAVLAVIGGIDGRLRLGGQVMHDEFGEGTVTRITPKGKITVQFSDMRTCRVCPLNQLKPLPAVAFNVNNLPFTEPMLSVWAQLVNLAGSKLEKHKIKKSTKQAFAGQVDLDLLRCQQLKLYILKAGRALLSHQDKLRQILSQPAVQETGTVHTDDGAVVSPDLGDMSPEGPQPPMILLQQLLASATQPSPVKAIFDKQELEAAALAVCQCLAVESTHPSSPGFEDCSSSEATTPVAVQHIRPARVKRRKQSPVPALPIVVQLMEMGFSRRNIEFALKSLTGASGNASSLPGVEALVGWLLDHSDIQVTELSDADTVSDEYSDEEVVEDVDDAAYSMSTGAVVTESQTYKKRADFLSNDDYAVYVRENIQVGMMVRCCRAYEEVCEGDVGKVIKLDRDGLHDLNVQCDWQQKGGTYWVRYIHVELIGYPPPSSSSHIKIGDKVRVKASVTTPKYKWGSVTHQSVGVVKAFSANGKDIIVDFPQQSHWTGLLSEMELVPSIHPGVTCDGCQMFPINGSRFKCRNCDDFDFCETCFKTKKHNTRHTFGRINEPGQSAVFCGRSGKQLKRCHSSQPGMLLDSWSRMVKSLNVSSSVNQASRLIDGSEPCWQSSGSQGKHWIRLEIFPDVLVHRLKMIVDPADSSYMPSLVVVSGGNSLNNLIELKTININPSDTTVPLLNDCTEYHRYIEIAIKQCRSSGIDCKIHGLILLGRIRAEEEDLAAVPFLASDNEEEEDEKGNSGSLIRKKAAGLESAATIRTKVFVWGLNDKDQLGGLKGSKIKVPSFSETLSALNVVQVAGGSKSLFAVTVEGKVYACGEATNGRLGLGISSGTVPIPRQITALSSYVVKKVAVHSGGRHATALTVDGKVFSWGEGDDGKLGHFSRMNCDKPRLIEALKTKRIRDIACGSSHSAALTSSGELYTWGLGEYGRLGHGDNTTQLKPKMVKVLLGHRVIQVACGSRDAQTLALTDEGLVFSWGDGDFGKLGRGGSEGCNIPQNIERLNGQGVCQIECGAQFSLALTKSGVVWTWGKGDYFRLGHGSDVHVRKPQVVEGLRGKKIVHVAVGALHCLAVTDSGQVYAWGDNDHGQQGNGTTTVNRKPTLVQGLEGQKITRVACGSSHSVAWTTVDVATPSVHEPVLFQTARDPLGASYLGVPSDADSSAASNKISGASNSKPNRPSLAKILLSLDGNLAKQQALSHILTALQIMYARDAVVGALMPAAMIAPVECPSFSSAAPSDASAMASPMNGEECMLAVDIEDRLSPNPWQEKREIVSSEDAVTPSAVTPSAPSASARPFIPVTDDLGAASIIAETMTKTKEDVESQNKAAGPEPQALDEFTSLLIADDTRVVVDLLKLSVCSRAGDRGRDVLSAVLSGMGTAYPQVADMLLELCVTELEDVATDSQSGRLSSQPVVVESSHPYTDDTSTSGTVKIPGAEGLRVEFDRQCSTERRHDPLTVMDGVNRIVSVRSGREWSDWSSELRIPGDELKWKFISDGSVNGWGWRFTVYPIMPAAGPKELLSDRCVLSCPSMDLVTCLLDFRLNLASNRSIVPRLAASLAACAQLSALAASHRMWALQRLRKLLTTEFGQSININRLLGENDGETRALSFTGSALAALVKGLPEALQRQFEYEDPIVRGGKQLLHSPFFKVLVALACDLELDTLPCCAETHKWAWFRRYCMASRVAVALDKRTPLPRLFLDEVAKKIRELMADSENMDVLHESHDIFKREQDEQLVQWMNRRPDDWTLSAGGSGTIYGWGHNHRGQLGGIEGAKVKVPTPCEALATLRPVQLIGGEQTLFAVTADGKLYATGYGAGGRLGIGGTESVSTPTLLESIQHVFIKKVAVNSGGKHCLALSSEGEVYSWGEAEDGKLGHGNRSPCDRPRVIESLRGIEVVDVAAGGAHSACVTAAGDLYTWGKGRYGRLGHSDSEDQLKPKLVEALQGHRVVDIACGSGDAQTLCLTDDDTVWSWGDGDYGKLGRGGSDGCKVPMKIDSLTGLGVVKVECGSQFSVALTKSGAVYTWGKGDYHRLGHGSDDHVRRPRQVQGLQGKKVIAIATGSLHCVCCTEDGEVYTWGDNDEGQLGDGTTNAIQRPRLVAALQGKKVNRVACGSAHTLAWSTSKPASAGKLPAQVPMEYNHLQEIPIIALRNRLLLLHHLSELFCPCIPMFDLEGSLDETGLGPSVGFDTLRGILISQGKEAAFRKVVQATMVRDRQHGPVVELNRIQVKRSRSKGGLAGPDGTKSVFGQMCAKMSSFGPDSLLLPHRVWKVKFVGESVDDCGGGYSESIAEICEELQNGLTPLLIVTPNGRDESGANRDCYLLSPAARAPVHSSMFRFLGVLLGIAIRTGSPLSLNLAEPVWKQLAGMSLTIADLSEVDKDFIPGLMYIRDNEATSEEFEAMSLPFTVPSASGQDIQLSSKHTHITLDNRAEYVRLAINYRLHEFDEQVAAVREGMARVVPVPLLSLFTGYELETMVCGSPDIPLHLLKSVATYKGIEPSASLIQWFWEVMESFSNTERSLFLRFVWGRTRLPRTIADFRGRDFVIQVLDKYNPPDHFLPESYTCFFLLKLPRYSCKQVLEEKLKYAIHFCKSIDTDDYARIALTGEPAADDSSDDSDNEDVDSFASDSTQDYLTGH
HERC2-NH2 (amino-terminus of human HERC2, residues 1-199, fusion protein with glutathione S-transferase): residues 1-199 of O95714
HERC2-CPH (CPH domain of human HERC2, residues 2547-2640, fusion protein with glutathione S-transferase): residues 2547-2640 of O95714

Test [6] addresses HERC2-CPH (CPH domain of human HERC2, residues 2547-2640, fusion protein with glutathione S-transferase) (human) (UniProt O95714). Kind of test: pull-down; in vitro pull-down with HERC2-NH2 and HERC2-CPH (GST fusion proteins); Supplementary Figure 5A.
For test [7], the target named is HERC2-NH2 (amino-terminus of human HERC2, residues 1-199, fusion protein with glutathione S-transferase) (human) (UniProt O95714). The description is as above.

Results are given in words; binding and its absence hold for the method and conditions named. In cells and extracts the contact can be indirect. Some results given as binding are weak or reduced against the parent protein; the word gives no strength.

In the case of “HERC2 (endogenous, human umbilical vein endothelial cells) (from UniProt O95714 1-4834)”, the binding entry in test [1] was “binds”. For “HERC2 (experiment with full-length and truncated SIRT1) (from UniProt O95714 1-4834)”, the values for the binding result in test [2] and in test [3] were “binds” and “no binding”, respectively. “HERC2-DOC (DOC-3FLAG; HERC2 amino acid 2765 to 2910 with a carboxy-terminal triple-FLAG tag) (from UniProt O95714 2765-2910) (domain or fragment)”: the binding result in test [4] is reported as “binds”. Consider “HERC2-HECT (HECT-3FLAG; HERC2 amino acid 4419 to 4834 with a carboxy-terminal triple-FLAG tag) (from UniProt O95714 4419-4834) (domain or fragment)”, for which the binding result in test [4] and in test [5] was “no binding” throughout.

Take “HERC2-HECT domain without any fusion tags (HECT-noTag) (from UniProt O95714 4419-4834) (domain or fragment)”: the binding entry in test [5] is “no binding”. As for “HERC2-RCC2 (RCC2-3FLAG; HERC2 amino acid 2786 to 3642 with a carboxy-terminal triple-FLAG tag) (from UniProt O95714 2786-3642) (domain or fragment)”, the binding result in test [4] is “binds”.

B1: LKB1 (in vitro pull-down experiments) (protein, UniProt Q9WTK7 1-436)
chain: MDVADPEPLGLFSEGELMSVGMDTFIHRIDSTEVIYQPRRKRAKLIGKYLMGDLLGEGSYGKVKEVLDSETLCRRAVKILKKKKLRRIPNGEANVKKEIQLLRRLRHRNVIQLVDVLYNEEKQKMYMVMEYCVCGMQEMLDSVPEKRFPVCQAHGYFRQLIDGLEYLHSQGIVHKDIKPGNLLLTTNGTLKISDLGVAEALHPFAVDDTCRTSQGSPAFQPPEIANGLDTFSGFKVDIWSAGVTLYNITTGLYPFEGDNIYKLFENIGRGDFTIPCDCGPPLSDLLRGMLEYEPAKRFSIRQIRQHSWFRKKHPLAEALVPIPPSPDTKDRWRSMTVVPYLEDLHGRAEEEEEEDLFDIEDGIIYTQDFTVPGQVLEEEVGQNGQSHSLPKAVCVNGTEPQLSSKVKPEGRPGTANPARKVCSSNKIRRLSACKQQ
Take B1: the binding entry in test [6] and in test [7] was “no binding” each time.
